Assay results reported in ChEMBL document CHEMBL4888484, “Replenishing the malaria drug discovery pipeline: Screening and hit evaluation of the MMV Hit Generation Library 1 (HGL1) against asexual blood stage Plasmodium falciparum ,using a nano luciferase reporter read-out” (2022).
In all, about 150,000 compounds went through this assay and about 540 (0.36%) showed an effect of 50% or more. The list shows a part of the results.

What follows are compounds tested on Plasmodium falciparum (assay: Primary screen in NF54 nanoGlo assay, in single point, at 2uM, 72h; a lower Z score goes with more inhibition). Conditions: timepoint 72 hour.
Type: functional, Erythrocyte

Row | Compound | % Inhibition [%] | Z score
1 | CS(=O)(=O)NC1CC1C1CCCCC1 (stereo not given) | -6 | 0.84
2 | O=C(CCCc1ccccc1)N1CCC(F)(C(=O)N2CCOCC2)CC1 | -6 | 0.84
3 | Cc1ccccc1C(=O)N1[C@H](C(=O)NCc2cccnc2)COC12CCN(C(=O)c1ccccc1F)CC2 | -7 | 1.1
4 | COc1cc(C)ccc1-c1nc([C@H]2CCOC2)no1 | 3 | -0.38
5 | C#C[C@H](CO)NCc1ccc(Cl)s1 | 11 | -1.38
6 | Cc1ncc(C(=O)O)cc1NC(=O)CC(C)(C)C | 4 | -0.5
7 | CN(Cc1nc2ccccc2s1)C(=O)c1cc(S(=O)(=O)N2CCCCC2)ccc1N1CCCC1 | 0 | -0.02
8 | Cc1cnc(C2CCC2)n1C[C@H]1CCN(S(=O)(=O)c2cccc(F)c2)C1 | -9 | 1.23
9 | O=C(NCCn1ccnc1)Nc1ccc(Cl)cc1C(F)(F)F | -4 | 0.57
10 | Cc1nsc(C(=O)NCc2ccccc2Cl)n1 | -6 | 0.89
11 | c1cncc(-c2noc(CN3CCC(c4cc[nH]n4)CC3)n2)c1 | -14 | 1.53
12 | CC(=O)N1CCCN(C[C@@H]2OC[C@H](NC(=O)c3ccc(Cl)cc3)[C@H]2O)CC1 | 25 | -2.87
13 | CC(=O)Nc1ccc(S(=O)(=O)NCCn2c(-c3ccc(C)cc3)nc3ccccc32)cc1 | -1 | 0.11
14 | CN(C)c1cc2c(cc1NC(=O)NCC1=CCCCC1)n(C)c(=O)n2C | -7 | 0.93
15 | CCc1nc(C)c(CNC(=O)CCCn2cccn2)s1 | -4 | 0.9
16 | CCOCc1ccccc1CNC(=O)Nc1ccc2nc(C)nn2c1 | -5 | 0.77
17 | CC(C)(O)CN[C@@H](CCCNC(=O)OC(C)(C)C)c1ccccc1 | -7 | 0.95
18 | Cc1noc(C)c1S(=O)(=O)NC[C@H](O)c1csc2ccccc12 | -21 | 2.64
19 | CCc1cnc(CN(C)Cc2nnc(C)o2)s1 | 4 | -0.69
20 | CN(CC(=O)Nc1cccc(F)c1)C(=O)C[C@@H]1C=CCC1 | 12 | -1.67
21 | Cc1ccc(C)c(-n2nc(CC(C)C)nc2CN2C(=O)CNC2=O)c1 | 1 | -0.25
22 | Cc1cc(NC(=O)c2csc(-c3cccs3)n2)no1 | -3 | 0.37

Row | Compound | % Inhibition [%] | Z score
23 | Cc1ccc(CN(Cc2ccc(C(O)(c3cccc(F)c3)c3cccc(F)c3)o2)C[C@H]2CCCO2)o1 | -7 | 1.01
24 | COc1ccc(C(=O)N(C)C2CCN(Cc3ncc(C)c(OC)c3C)CC2)nc1 | -1 | 0.06
25 | CCOC1CCN(Cc2cnc3c(S(C)(=O)=O)cnn3c2)CC1 | -14 | 2.04
26 | O=C(OC1CCCC1)c1ccc(NC(=O)[C@@H]2COCCO2)cc1 | -8 | 1.52
27 | Cc1cc(-c2nnn(CC3(CS(C)(=O)=O)CCC3)n2)ccc1F | -1 | 0.22
28 | CC[C@H](NC(=O)N1CCNC(=O)CC1)c1ccccc1OC(F)F | -14 | 1.69
29 | CCN(c1ccc(C(F)(F)F)c(C#N)n1)[C@H]1CCOC1 | -8 | 0.86
30 | COCCN(c1nc2ccccc2s1)S(=O)(=O)c1cc(C(C)=O)ccc1Cl | -8 | 1
31 | O=C(c1ccc(CS(=O)(=O)c2ccccc2)o1)N1CCN(c2ccccc2Cl)CC1 | -6 | 0.55
32 | C[C@H](Oc1cccc(Cl)c1Cl)C(=O)Nc1cnc(-c2cccc(O)c2)nc1 | 11 | -1.38
33 | COc1nc(-c2ccccc2Cl)nc2c1sc(=S)n2-c1ccccc1 | -6 | 0.84
34 | COc1cccc(NC(=O)Nc2cccc(CCc3nc4ccccc4n3C)c2)c1 | -11 | 1.73
35 | COC(=O)[C@H]1CCc2nnc(Cc3ccccc3C)n2CC1 | 10 | -1.73
36 | CC(=O)c1ccc(S(=O)(=O)N2CCN(Cc3noc4ccccc34)CC2)cc1 | -5 | 0.6
37 | Cc1ccccc1NC(=O)CN1CCN(Cc2ccccc2)S1(=O)=O | -18 | 1.6
38 | c1ccc(CCc2noc(-c3ccnc4ccncc34)n2)cc1 | 10 | -0.89
39 | COc1csc(C(=O)NCc2noc(-c3ccsc3)n2)c1 | -13 | 1.33
40 | Cc1cc(-c2ccncc2)cnc1-n1cnnc1 | -14 | 1.82
41 | Cc1cc(CN2C[C@@H]3CC[C@H]2CN(Cc2c(C)noc2C)C3)ccc1F | -17 | 3.36
42 | CCOC(=O)N1CCC(Nc2nc(-c3ccc4c(c3)OCCO4)cs2)CC1 | 1 | -0.13
43 | CC1(C)[C@@H]2CCC13CS(=O)(=O)N(Cc1cnc4ccccc4c1)[C@H]3C2 | -5 | 0.89
44 | O=C(CC1CCC(F)(F)CC1)NCc1cccc2occc12 | -4 | 0.65

Row | Compound | % Inhibition [%] | Z score
45 | CN(C(=O)NC1CCCCCC1)C1CCC1 | -4 | 0.51
46 | Cc1csc(N(C)C(=O)c2cc(N3CC(C)OC(C)C3)ccn2)n1 (stereo not given) | -5 | 0.89
47 | Cc1ccc(OCCN)c(C(=O)NCc2cc3ccccc3s2)c1 | 2 | -0.31
48 | CCOc1cc(C(=O)N2CC(S(=O)(=O)CC(C)C)C2)cc(OCC)c1OCC | -8 | 1.04
49 | c1ccc(CCCN2CCCN(Cc3cnn4cccnc34)CC2)cc1 | 5 | -0.75
50 | CCC1CN(C(=O)NCc2cc(OC)no2)CC(C)O1 (stereo not given) | -11 | 2.2
51 | Cc1cc(N(C)C)ccc1CN[C@@H](C)CCn1cccn1 | 1 | -0.15
52 | O=C(COc1ccccc1Cl)NC(=O)Nc1cccc(C(F)(F)F)c1 | 1 | -0.14
53 | O=C(Nc1cnccc1O)c1ccccc1C(=O)c1ccc(Br)cc1 | -8 | 1.14
54 | CCc1cc(C(=O)NCc2ccc(C)cc2)nc2ccnn12 | 5 | -0.81
55 | CCOC1CC(CO)(NC(=O)c2ccc(C(C)C)nc2)C1(C)C (stereo not given) | 8 | -1.51
56 | Cc1ccc(S(=O)(=O)N2CCN(C(=O)CCn3ccc4ccccc43)CC2)cc1 | -3 | 0.58
57 | Cc1cc(C)n2ncc(-c3noc([C@H](C)OCC4CC4)n3)c2n1 | -10 | 1.37
58 | O=C(NCC(F)(F)C(F)F)[C@H]1COCC(=O)N1Cc1ccccc1 | -26 | 3.03
59 | CCCCN(C)c1ncc(Cl)c(C(=O)NCCNS(=O)(=O)CC)n1 | -6 | 0.78
60 | C[C@H]1CCS(=O)(=O)CCN1C(=O)NCC(C)(C)C1CCCCC1 | 0 | 0.04
61 | CC(=O)c1cc(-c2ccccc2CN2CCOCC2)ccc1O | -8 | 1.4
62 | O=C(CCc1ccccc1)N1CCC[C@H]1c1ccc[nH]1 | -16 | 1.61
63 | Cc1cc(C(=O)NC2(CCO)CCN(C)CC2)oc1Br | -2 | 0.36
64 | Cc1cc(CS(=O)(=O)N(C(C)C)C2COC2)on1 | -13 | 1.91
65 | CC(C)Cc1noc(CN(C)C2CCN(Cc3ccccc3)CC2)n1 | 0 | -0.05
66 | COc1cccc(NC(=O)CN2C[C@H](CCN3CCCC3=O)c3ccccc32)c1 | -4 | 0.83

Row | Compound | % Inhibition [%] | Z score
67 | CCN(CC)c1ccc(C(=O)Oc2ccc(NC(C)=O)cc2)cn1 | 0 | -0.06
68 | CC(C)N(CC1CCC1)C(=O)NCc1ccc(C(N)=O)o1 | -5 | 0.97
69 | CC(C)Cc1cc(CNC(=O)c2cc(CC(C)C)nc(N)n2)on1 | 17 | -2.23
70 | CCCS(=O)(=O)N(CCOC)CC(=O)N(Cc1ccc(Cl)cc1)C1CCN(C(=O)c2ccccc2F)CC1 | -23 | 3.08
71 | CC1(C)CC(=S)C=C(N2CCCCC2)C1 | -7 | 1.08
72 | COc1ccc(-n2c(Cn3ccnc3)n[nH]c2=O)c(C)c1 | -7 | 0.95
73 | CN(CC(=O)N1CCOCC1)C1CCCCC1 | -1 | 0.13
74 | CCC1(CC)C(NC(=O)Nc2c[nH]c(=O)c(C)c2)C(C)C1OC (stereo not given) | 1 | -0.08
75 | COc1cccc(OCCN2CC[C@H](c3cccc(OC)c3OC)C2)c1 | 0 | 0
76 | CC(C)(C)c1noc(CNC(=O)CCc2cn[nH]c2)n1 | -16 | 3.08
77 | c1ccc2ncc(CO[C@H]3CCCc4c[nH]nc43)cc2c1 | -13 | 2.26
78 | CCn1ncc(C(=O)N[C@@H]2C[C@H]3OCC[C@@H]23)c1C | 0 | 0.04
79 | COc1ccc(-c2cc3n(n2)C[C@@](C)(C(=O)NCc2ccccc2OC)N(c2cc(C)cc(C)c2)C3=O)cc1 | 9 | -1.43
80 | CC(=O)OCC1OC2OC(C)(C#N)OC2C(OC(C)=O)C1OC(C)=O (stereo not given) | 1 | -0.1
81 | CC[C@](C)(NC(=O)c1cnc(C2CC2)nc1N)c1nc(C)cs1 | -10 | 1
82 | CC(C)N(CC(=O)Nc1nc(-c2ccccc2)cn1-c1ccccc1)S(=O)(=O)c1ccc(Cl)cc1 | -2 | 0.29
83 | Cc1ccccc1Cc1c(C)nc2c(C(=O)N3CCC(Cc4nncn4Cc4ccccc4)CC3)cnn2c1C | 3 | -0.29
84 | CC(C)N1C(=O)CC[C@H]1C(=O)NC1(c2c(F)cccc2F)COC1 | 4 | -0.55
85 | CCCn1nnnc1CNc1ccc(C(C)C)cc1 | 31 | -3.48
